# Reference: publication PMC6212790
# Some of the results follow. At the low end of the ranking, values are background and their order means little.
# Molecular target: T1, GST-Rok (full length) (UniProt O34857)
# T1 sequence: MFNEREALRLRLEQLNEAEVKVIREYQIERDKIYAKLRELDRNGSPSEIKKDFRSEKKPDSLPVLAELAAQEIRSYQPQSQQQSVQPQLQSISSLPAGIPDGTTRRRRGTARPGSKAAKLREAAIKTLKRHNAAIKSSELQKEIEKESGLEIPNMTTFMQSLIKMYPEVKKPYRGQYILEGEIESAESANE
# Assay: protein binding microarray;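 note: rank score from −0.5 (least bound) to 0.5 (best bound)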
# Conditions: Rok is a gene silencer of Bacillus subtilis; high values mean tight binding; most listed sequences are background and not binding sites; double strand, one strand shown
row,Sequence,binding signal [E-score]
1,ATGTTGAG,0.0979
2,CCCGCTTA,-0.331
3,CAATTCGA,-0.0322
4,ATCAGGAC,-0.0979
5,CTGAATCC,-0.216
6,ATGAGATC,0.0598
7,ACATATAC,0.289
8,GAGCTGTA,-0.0291
9,ATTTACTG,0.287
10,CATCTTGC,-0.0781
11,GTTGCTTA,0.0938
12,ACAGGCGA,-0.0185
13,CCCCCACG,-0.372
14,CCTTAAAG,-0.0967
15,ACTTCAGG,0.166
16,ACGTCACG,0.0609
17,ATCTGCCA,-0.00399
18,AGGGTAAT,0.149
19,AGCGGCCA,-0.166
20,ACAGTACT,0.0536
21,AACCAAGT,0.0344
22,ACGCAAGG,-0.101
23,ACAGGCTC,-0.245
24,GGTTTCAC,-0.247
25,ACACAGGC,-0.179

row,Sequence,binding signal [E-score]
1,GAACGTCA,-0.162
2,CTACCGAC,0.107
3,GATTGGAC,-0.151
4,GAAATAAC,0.252
5,CAGATCTC,-0.058
6,GAACGCCA,-0.0399
7,CAAGGCAA,-0.218
8,GCTTCGGA,0.000115
9,AGAATAAA,0.000461
10,TTGAAAAA,0.0918
11,GTCACGTA,0.0695
12,ATCCTATC,0.0996
13,CGTGAGAG,0.0208
14,AGCTCCGA,-0.0243
15,GCAGTGTA,0.0987
16,AAGTCGAT,0.0686
17,GCAGACCC,-0.295
18,AACAATAC,0.109
19,AGTGAAGC,-0.131
20,CTATTCAG,0.125
21,CGTTGCGA,-0.105
22,ACAACTTC,0.0437
23,CCAACCCA,-0.0381
24,CACCTGAC,-0.144
25,TATGCGCA,0.194

row,Sequence,binding signal [E-score]
1,ATCGACGA,0.0292
2,ACGAGTCG,0.0271
3,ACGACCTG,-0.147
4,GCCGACAC,-0.219
5,AAGACCAG,-0.221
6,AAACTTAT,0.291
7,CCCTTGGC,-0.199
8,GCAAATAC,0.193
9,CTTAAAGC,-0.0533
10,ATGTTTAA,0.0814
11,GAAGTTGC,0.0518
12,ATAGTGCG,0.138
13,GGACAACA,-0.0547
14,AACACATA,0.165
15,CTGCTGTC,-0.225
16,AACGAGGA,-0.2
17,GTGGCCAC,-0.123
18,GCCCGGAA,-0.291
19,GCGTGTCA,-0.151
20,ACTTTTGA,0.0315
21,ACGCGTAA,0.164
22,AAACTGTA,0.174
23,CACGTTCC,-0.0616
24,GCCGCAAA,-0.232
25,TGCAAGAA,-0.163

row,Sequence,binding signal [E-score]
1,TCACTGGA,-0.0487
2,AGGGCTGA,-0.211
3,AGTCTTTG,-0.00272
4,GGGACGTA,-0.0206
5,GAACTTGA,0.103
6,CAACCTTC,-0.135
7,AGATTTGC,0.0078
8,CAAAGAAA,-0.0318
9,CATTGTAA,0.112
10,CTAGGAGA,0.00198
11,TGGAAGAA,-0.0407
12,ACATTTCG,0.193
13,GCTAAGCC,-0.0953
14,ATTACGAA,0.138
15,CCTGTGAC,-0.0643
16,CCGCGAAG,-0.13
17,CAACGAAC,0.0188
18,TACCATGA,0.207
19,CACATAGG,-0.111
20,CCCAAGTC,-0.19
21,CAGGTATA,0.231
22,GCAGGGCC,-0.297
23,AAACGCGC,-0.17
24,TGCGAGAA,-0.000374
25,CCCACTAC,-0.033

row,Sequence,binding signal [E-score]
1,ACAGGTCA,-0.129
2,ATGGATCA,-0.0234
3,GCAGGAAA,-0.0854
4,CAACACTA,0.163
5,AACTAGCG,0.241
6,CAGCAACC,-0.0895
7,AGTAATGA,0.159
8,ACATAATA,0.231
9,GTTATTGA,0.0636
10,GCCACCCA,-0.278
11,CCAAAGGA,-0.327
12,CCTGTATA,0.243
13,GCGGTGAA,-0.05
14,AGAGCACC,-0.177
15,AAGTACGG,0.158
16,GCGTGAGA,-0.00166
17,AAATTAAA,0.166
18,ACCATCCG,-0.115
19,ATGTGACC,-0.00165
20,GCTTCCCA,-0.243
21,AGGATCCA,0.0105
22,ACTAGAAT,0.356
23,CTCGCTCA,-0.0503
24,CGGCCCGC,-0.44
25,AAGAGGTA,0.0718

row,Sequence,binding signal [E-score]
1,ACTAATAC,0.265
2,AAGGAGTC,-0.107
3,ACAAACTA,0.383
4,GACAAGAC,-0.134
5,CCCGAGCA,-0.158
6,AGCCCGAT,-0.0445
7,AAGGCCCA,-0.281
8,GAACTTAC,-0.017
9,GACTAGTC,0.224
10,TCAATTGA,0.232
11,CATACACG,0.0583
12,GACCGGTC,-0.0764
13,ACACAACT,0.111
14,ATGACTGC,0.00695
15,CGTCAGTA,0.0497
16,CCAAATCC,-0.154
17,AGTCAGTA,0.229
18,GCGCGCAC,0.0371
19,ACCGGATG,-0.0132
20,CTGTGAGA,-0.0466
21,ACATCGGA,0.06
22,AGGTAACT,0.267
23,CCTGACAA,-0.0933
24,AACACAAT,-0.0265
25,CAGTCAAG,-0.233

row,Sequence,binding signal [E-score]
1,GCGTACAA,0.00133
2,GGCCTTAA,-0.224
3,CTCTCATC,0.00156
4,TGCCGCCA,-0.137
5,ATAGCGCA,0.215
6,ATCTGTAA,0.178
7,TCAAATCA,-0.0506
8,GATGTTTA,0.04
9,CAATTAAG,-0.152
10,TAGCATGA,0.0672
11,ACGTATAC,0.232
12,AGGCGTTG,-0.109
13,ATGGACCA,-0.172
14,GACAGAAA,-0.116
15,TGGTGTAA,0.112
16,CATATACA,0.258
17,ACGGAGCT,-0.0758
18,CACTCTAA,-0.123
19,CGGGTAGA,0.137
20,GGACTCCC,-0.38
21,GATCCACA,0.0107
22,CACACCAA,0.0711
